# The other results are listed elsewhere or left out.
# B1: CAA (Caragana arborescens) (protein)
# chain: VAVEFDTFDNPDWDPRTKHIGIDVNSIRSNKTTQWGFWNRQVADVDISYEASSKTLNVSLYYPGESYIVTDVVDLKDILPEWVRIGF
# Tests used:
# Assay in all cases: glycan array binding signal (z-score within array); higher = stronger binding
# Conditions in all cases: glycan notation: IUPAC condensed, linker removed
# Gal(a1-6)Glc = target: Gal(a1-6)Glc
# Summary of the method: (§1)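 Arrays were curated from the Consortium for Functional Glycomics database, 3228 in total, and kept only where the protein sequence was available. Binding is expressed as a within-array Z-score. This score was averaged across arrays of the same protein sequence at different concentrations or buffers and across linkers, and negative values can be read as non-binding.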
# Gal(b1-2)Gal = target: Gal(b1-2)Gal
# Summary of the method: as §1
# Gal(b1-3)Gal = target: Gal(b1-3)Gal
# Summary of the method: as §1
# Gal(b1-3)Gal(b1-4)GlcNAc = target: Gal(b1-3)Gal(b1-4)GlcNAc
# Summary of the method: as §1
# Gal(b1-3)GalNAc = target: Gal(b1-3)GalNAc
# Summary of the method: as §1
# [1] = target: Gal(b1-3)GalNAc(a1-3)[Fuc(a1-2)]Gal(b1-4)Glc
# Summary of the method: as §1
# [2] = target: Gal(b1-3)GalNAc(a1-3)[Fuc(a1-2)]Gal(b1-4)GlcNAc
# Summary of the method: as §1
# Gal(b1-3)GalNAc(b1-3)Gal = target: Gal(b1-3)GalNAc(b1-3)Gal
# Summary of the method: as §1
# [3] = target: Gal(b1-3)GalNAc(b1-3)Gal(a1-4)Gal(b1-4)Glc
# Summary of the method: as §1
# [4] = target: Gal(b1-3)GalNAc(b1-4)Gal(b1-4)Glc
# Summary of the method: as §1
# [5] = target: Gal(b1-3)GalNAc(b1-4)[Neu5Ac(a2-3)]Gal(b1-4)Glc
# Summary of the method: as §1
# Gal(b1-3)GlcNAc = target: Gal(b1-3)GlcNAc
# Summary of the method: as §1
# [6] = target: Gal(b1-3)GlcNAc(a1-3)Gal(b1-4)GlcNAc
# Summary of the method: as §1
# [7] = target: Gal(b1-3)GlcNAc(a1-6)Gal(b1-4)GlcNAc
# Summary of the method: as §1
# Gal(b1-3)GlcNAc(b1-2)Man = target: Gal(b1-3)GlcNAc(b1-2)Man
# Summary of the method: as §1
# [8] = target: Gal(b1-3)GlcNAc(b1-2)Man(a1-3)[Gal(b1-3)GlcNAc(b1-2)Man(a1-6)]Man(b1-4)GlcNAc(b1-4)GlcNAc
# Summary of the method: as §1
# [9] = target: Gal(b1-3)GlcNAc(b1-2)Man(a1-3)[Gal(b1-3)GlcNAc(b1-2)Man(a1-6)]Man(b1-4)GlcNAc(b1-4)[Fuc(a1-6)]GlcNAc
# Summary of the method: as §1
# [10] = target: Gal(b1-3)GlcNAc(b1-2)Man(a1-3)[GlcNAc(b1-4)][Gal(b1-3)GlcNAc(b1-2)Man(a1-6)]Man(b1-4)GlcNAc(b1-4)GlcNAc
# Summary of the method: as §1
# [11] = target: Gal(b1-3)GlcNAc(b1-2)[Gal(b1-3)GlcNAc(b1-6)]Man(a1-6)[Gal(b1-3)GlcNAc(b1-2)Man(a1-3)]Man(b1-4)GlcNAc(b1-4)GlcNAc
# Summary of the method: as §1
# [12] = target: Gal(b1-3)GlcNAc(b1-3)Gal(b1-3)GlcNAc
# Summary of the method: as §1
# [13] = target: Gal(b1-3)GlcNAc(b1-3)Gal(b1-4)Glc
# Summary of the method: as §1
# [14] = target: Gal(b1-3)GlcNAc(b1-3)Gal(b1-4)GlcNAc
# Summary of the method: as §1
# [15] = target: Gal(b1-3)GlcNAc(b1-3)Gal(b1-4)GlcNAc(b1-2)Man(a1-3)[Gal(b1-3)GlcNAc(b1-3)Gal(b1-4)GlcNAc(b1-2)Man(a1-6)]Man(b1-4)GlcNAc(b1-4)GlcNAc
# Summary of the method: as §1
# [16] = target: Gal(b1-3)GlcNAc(b1-3)Gal(b1-4)GlcNAc(b1-2)[Gal(b1-3)GlcNAc(b1-3)Gal(b1-4)GlcNAc(b1-6)]Man(a1-6)[Gal(b1-3)GlcNAc(b1-3)Gal(b1-4)GlcNAc(b1-2)Man(a1-3)]Man(b1-4)GlcNAc(b1-4)[Fuc(a1-6)]GlcNAc
# Summary of the method: as §1
# [17] = target: Gal(b1-3)GlcNAc(b1-3)Gal(b1-4)GlcNAc(b1-3)Gal(b1-4)GlcNAc(b1-2)[Gal(b1-3)GlcNAc(b1-3)Gal(b1-4)GlcNAc(b1-3)Gal(b1-4)GlcNAc(b1-6)]Man(a1-6)[Gal(b1-3)GlcNAc(b1-3)Gal(b1-4)GlcNAc(b1-3)Gal(b1-4)GlcNAc(b1-2)Man(a1-3)]Man(b1-4)GlcNAc(b1-4)[Fuc(a1-6)]GlcNAc
# Summary of the method: as §1
# [18] = target: Gal(b1-3)GlcNAc(b1-3)Gal(b1-4)GlcNAc(b1-6)[Gal(b1-3)GlcNAc(b1-3)]Gal(b1-4)Glc
# Summary of the method: as §1
# [19] = target: Gal(b1-3)GlcNAc(b1-3)Gal(b1-4)[Fuc(a1-3)]GlcNAc
# Summary of the method: as §1
# [20] = target: Gal(b1-3)GlcNAc(b1-3)Gal(b1-4)[Fuc(a1-3)]GlcNAc(b1-6)[Gal(b1-3)GlcNAc(b1-3)]Gal(b1-4)Glc
# Summary of the method: as §1
# [21] = target: Gal(b1-3)GlcNAc(b1-3)GalNAc
# Summary of the method: as §1
# [22] = target: Gal(b1-3)GlcNAc(b1-6)Gal(b1-4)GlcNAc
# Summary of the method: as §1
# [23] = target: Gal(b1-3)GlcNAc(b1-6)GalNAc
# Summary of the method: as §1
# [24] = target: Gal(b1-3)GlcNAc(b1-6)[Gal(b1-3)]GalNAc
# Summary of the method: as §1
# Gal(b1-3)GlcNAc6S = target: Gal(b1-3)GlcNAc6S
# Summary of the method: as §1
# [25] = target: Gal(b1-3)[Fuc(a1-4)]GlcNAc
# Summary of the method: as §1
# [26] = target: Gal(b1-3)[Fuc(a1-4)]GlcNAc(b1-2)Man
# Summary of the method: as §1
# [27] = target: Gal(b1-3)[Fuc(a1-4)]GlcNAc(b1-2)Man(a1-3)[Gal(b1-3)[Fuc(a1-4)]GlcNAc(b1-2)Man(a1-6)]Man(b1-4)GlcNAc(b1-4)[Fuc(a1-6)]GlcNAc
# Summary of the method: as §1
# [28] = target: Gal(b1-3)[Fuc(a1-4)]GlcNAc(b1-3)Gal(b1-3)[Fuc(a1-4)]GlcNAc
# Summary of the method: as §1
# [29] = target: Gal(b1-3)[Fuc(a1-4)]GlcNAc(b1-3)Gal(b1-4)[Fuc(a1-3)]GlcNAc
# Summary of the method: as §1
# [30] = target: Gal(b1-3)[Fuc(a1-4)]GlcNAc(b1-6)GalNAc
# Summary of the method: as §1
# [31] = target: Gal(b1-3)[GlcNAc(b1-6)]GalNAc
# Summary of the method: as §1
# [32] = target: Gal(b1-3)[Neu5Ac(a2-6)]GalNAc
# Summary of the method: as §1
# [33] = target: Gal(b1-3)[Neu5Ac(a2-6)]GlcNAc(b1-4)Gal(b1-4)Glc
# Summary of the method: as §1
# [34] = target: Gal(b1-3)[Neu5Ac(b2-6)]GalNAc
# Summary of the method: as §1
# Gal(b1-4)Gal = target: Gal(b1-4)Gal
# Summary of the method: as §1
# [35] = target: Gal(b1-4)GalNAc(a1-3)[Fuc(a1-2)]Gal(b1-4)GlcNAc
# Summary of the method: as §1
binder,measurement,setting,value
B1,glycan array binding signal (z-score),Gal(a1-6)Glc,-0.243
same,glycan array binding signal (z-score),Gal(b1-2)Gal,-0.239
same,glycan array binding signal (z-score),Gal(b1-3)Gal,-0.24
same,glycan array binding signal (z-score),Gal(b1-3)Gal(b1-4)GlcNAc,-0.241
same,glycan array binding signal (z-score),Gal(b1-3)GalNAc,-0.242
same,glycan array binding signal (z-score),[1],-0.244
same,glycan array binding signal (z-score),[2],-0.235
same,glycan array binding signal (z-score),Gal(b1-3)GalNAc(b1-3)Gal,-0.241
same,glycan array binding signal (z-score),[3],-0.24
same,glycan array binding signal (z-score),[4],-0.239
same,glycan array binding signal (z-score),[5],-0.241
same,glycan array binding signal (z-score),Gal(b1-3)GlcNAc,-0.23
same,glycan array binding signal (z-score),[6],-0.245
same,glycan array binding signal (z-score),[7],-0.24
same,glycan array binding signal (z-score),Gal(b1-3)GlcNAc(b1-2)Man,-0.236
same,glycan array binding signal (z-score),[8],6.61
same,glycan array binding signal (z-score),[9],5.29
same,glycan array binding signal (z-score),[10],1.57
same,glycan array binding signal (z-score),[11],5.63
same,glycan array binding signal (z-score),[12],-0.24
same,glycan array binding signal (z-score),[13],-0.239
same,glycan array binding signal (z-score),[14],-0.246
same,glycan array binding signal (z-score),[15],-0.228
same,glycan array binding signal (z-score),[16],-0.229
same,glycan array binding signal (z-score),[17],-0.219
same,glycan array binding signal (z-score),[18],-0.241
same,glycan array binding signal (z-score),[19],-0.238
same,glycan array binding signal (z-score),[20],-0.244
same,glycan array binding signal (z-score),[21],-0.247
same,glycan array binding signal (z-score),[22],-0.252
same,glycan array binding signal (z-score),[23],-0.248
same,glycan array binding signal (z-score),[24],-0.235
same,glycan array binding signal (z-score),Gal(b1-3)GlcNAc6S,-0.249
same,glycan array binding signal (z-score),[25],-0.24
same,glycan array binding signal (z-score),[26],-0.248
same,glycan array binding signal (z-score),[27],1.61
same,glycan array binding signal (z-score),[28],-0.239
same,glycan array binding signal (z-score),[29],-0.242
same,glycan array binding signal (z-score),[30],-0.247
same,glycan array binding signal (z-score),[31],-0.242
same,glycan array binding signal (z-score),[32],-0.241
same,glycan array binding signal (z-score),[33],-0.252
same,glycan array binding signal (z-score),[34],-0.241
same,glycan array binding signal (z-score),Gal(b1-4)Gal,-0.24
same,glycan array binding signal (z-score),[35],-0.245

# — the supplement of paper PMC8728848
